Measurements as given in patent publication US8592181B2, “Brazzein variant having higher sweetness and method for preparing multi-variant” (Chung-Ang University Industry-Academy Cooperation Foundation, priority 2009, dated 2013).
At least one peptide structure holds a part that was inferred or is arguable (an end, a ring closure or a residue). Bridges are numbered along the chain shown (N, C = ends). Where no end group is shown, it is not given here.

Tested on: human sense of taste
Assay: Sweetness measured by human sense of taste (20 trained subjects, minimum concentration at which sweetness is first sensed)
Assay type: in vivo
Settings: for Multiples of increased sweetness to minor-type brazzein: relative to minor-type brazzein; for Minimum stimulation level in which one senses sweetness for first time: 20 trained subjects; for Sweetness ratios of sucrose (1 g/100 ml) to primary brazzein variants (minor-type brazzein: 2000) / Sweetness ratios of sucrose (1 g/100 ml) to brazzein multi-variants: relative to 1 g/100 ml sucrose threshold
Experimental: Since the recombinant brazzein according to the present invention is not a sucrose-based compound having a cyclic ring, the sweetness of the recombinant brazzein was not measured using a saccharometer. Therefore, the activity of the recombinant brazzein was measured using the human sense of taste. Sugar content measurement was performed on 20 subjects who were trained to feel substantially the same minimum concentration of sucrose in which they could sense sweetness using a sucrose solution. That is, a concentration of each brazzein variant in which the subjects could sense sweetness for the first time was measured. Also, a sweetness ratio of the sucrose solution to the wild-type brazzein was 1 g/100 ml, which was a minimum stimulation level in which the subjects could sense sweetness. Also, a sweetness ratio of the minor-type brazzein protein to the wild-type brazzein was 500 μg/100 ml, which was a minimum stimulation level in which the subjects could sense sweetness. Therefore, the sweetness was calculated using the sweetness ratios (That is, 1/0.0005=2000 for the minor-type brazzein).
Also, the brazzein multi-variants were measured for activity (sweetness) in the same manner as in Example 3-1.

Row | Sequence | Multiples of increased sweetness to minor-type brazzein (primary brazzein variants) | Minimum stimulation level in which one senses sweetness for first time (primary brazzein variants) | Sweetness ratios of sucrose (1 g/100 ml) to primary brazzein variants (minor-type brazzein: 2000) | Multiples of increased sweetness to minor-type brazzein (brazzein multi-variants) | Minimum stimulation level in which one senses sweetness for first time (brazzein multi-variants) | Sweetness ratios of sucrose (1 g/100 ml) to brazzein multi-variants
1 | DKCKKVYENYPVSKCQLANQCNYDCKLAKHARSGECFYDEKRNLQCICDYCEY (disulfide 3-51, 15-36, 21-46, 25-48) [Brazzein D28A] | 0.05 | 10,000 μg/100 ml | 100 |  |  | 
2 | DKCKKVYENYPVSKCQLANQCNYDCKLDKKRARSGDCFYDAKRNLQCICDYCEY (disulfide 3-52, 15-37, 21-47, 25-49) [29ins30 Lys_H30R_E35D_E40A] |  |  |  | 12.5 | 400 µg/mL | 25,000
3 | DKCKKVYENYPVSKCQLANQCNYDCKLDKKRARSGDCFYDDKRNLQCICDYCEY (disulfide 3-52, 15-37, 21-47, 25-49) [29ins30 Lys_H30R_E35D_E40D] |  |  |  | 14 | 350 µg/mL | 28,000
4 | DKCKKVYENYPVSKCQLANQCNYDCKLDKKRARSGDCFYDKKRNLQCICDYCEY (disulfide 3-52, 15-37, 21-47, 25-49) [29ins30 Lys_H30R_E35D_E40K] |  |  |  | 14 | 350 µg/mL | 28,000
5 | DKCKKVYENYPVSKCQLANQCNYDCKLDKKRARSGDCFYDRKRNLQCICDYCEY (disulfide 3-52, 15-37, 21-47, 25-49) [29ins30 Lys_H30R_E35D_E40R] |  |  |  | 20 | 250 µg/mL | 40,000
6 | DKCKKVYENYPVSKCQLANQCNYDCKLDKRARSGDCFYDAKRNLQCICDYCEY (disulfide 3-51, 15-36, 21-46, 25-48) [H30R_E35D_E40A] |  |  |  | 7.5 | 650 µg/mL | 15,000
7 | DKCKKVYENYPVSKCQLANQCNYDCKLDKRARSGDCFYDDKRNLQCICDYCEY (disulfide 3-51, 15-36, 21-46, 25-48) [H30R_E35D_E40D] |  |  |  | 10 | 500 µg/mL | 20,000
8 | DKCKKVYENYPVSKCQLANQCNYDCKLDKRARSGDCFYDKKRNLQCICDYCEY (disulfide 3-51, 15-36, 21-46, 25-48) [H30R_E35D_E40K] |  |  |  | 10 | 500 µg/mL | 20,000
9 | DKCKKVYENYPVSKCQLANQCNYDCKLDKRARSGDCFYDRKRNLQCICDYCEY (disulfide 3-51, 15-36, 21-46, 25-48) [H30R_E35D_E40R] |  |  |  | 11 | 450 µg/mL | 22,000
10 | DKCKKVYENYPVSKCQLANQCNYDCKLEKHARSGECFYDEKRNLQCICDYCEY (disulfide 3-51, 15-36, 21-46, 25-48) [Brazzein D28E] | 0.25 | 2,000 μg/100 ml | 500 |  |  | 
11 | DKCKKVYENYPVSKCQLANQCNYDCKLHKHARSGECFYDEKRNLQCICDYCEY (disulfide 3-51, 15-36, 21-46, 25-48) [Brazzein D28H] | 0.08 | 6,000 μg/100 ml | 167 |  |  | 
12 | DKCKKVYENYPVSKCQLANQCNYDCKLKKHARSGECFYDEKRNLQCICDYCEY (disulfide 3-51, 15-36, 21-46, 25-48) [Brazzein D28K] | 0.08 | 6,000 μg/100 ml | 167 |  |  | 
13 | DKCKKVYENYPVSKCQLANQCNYDCKLRKHARSGECFYDEKRNLQCICDYCEY (disulfide 3-51, 15-36, 21-46, 25-48) [Brazzein D28R] | 0.08 | 6,000 μg/100 ml | 167 |  |  | 
